Hit rate of the full screen: of about 370,000 compounds, about 150 (0.041%) were called active. The inconclusive results got no clear call from the source; some entries with a clear call stand among them for comparison. Calls come from the whole dose curve; as a rule, active = well fitted inhibition curve with a large enough effect; inconclusive = small, poorly fitted or top-dose-only effect; inactive = flat fitted curve, though single readings scatter. No potency is given beside an inconclusive call; the fits are too rough.
Biological target: Beta-lactamase (Escherichia coli (strain K12)) (UniProt P00811)
Assay: qHTS Inhibitors of AmpC Beta-Lactamase (assay with detergent); note: nearly all actives have a fitted effect of over 25% in size
Conditions: AmpC hydrolysis of nitrocefin, absorbance 480 nm, 0.01% Triton; series mostly up to 114 µM
Procedure, shortened: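 AmpC (5.3 nM in the dispensed reagent) in 20 mM phosphate pH 7.0 with 0.01% (detergent screen) or 0.0001% Triton X-100 was preincubated with compounds for 15 min at room temperature. Nitrocefin was then added from an 800 uM solution, and hydrolysis was followed at 480 nm.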
Potency is the fitted concentration of half-maximal effect; tags give direction and shape of the fitted curve.

UniProt P00811, sequence (P00811 whole entry, looked up): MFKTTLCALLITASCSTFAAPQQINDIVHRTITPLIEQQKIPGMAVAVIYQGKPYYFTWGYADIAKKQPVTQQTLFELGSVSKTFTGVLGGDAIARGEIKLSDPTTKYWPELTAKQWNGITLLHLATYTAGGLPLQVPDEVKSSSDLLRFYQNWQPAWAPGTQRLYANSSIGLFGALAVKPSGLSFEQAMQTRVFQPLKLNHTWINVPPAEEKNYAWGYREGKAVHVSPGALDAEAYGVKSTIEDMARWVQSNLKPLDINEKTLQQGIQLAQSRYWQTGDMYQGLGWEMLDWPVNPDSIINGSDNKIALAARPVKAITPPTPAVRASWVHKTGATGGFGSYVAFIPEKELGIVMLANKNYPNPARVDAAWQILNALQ

| Structure (SMILES) | Potency |
| --- | --- |
| O=C(Oc1ccc(C(=S)N2CCOCC2)cc1)c1ccccc1 | inactive |
| O=C1c2ccccc2C(=O)N1n1cccc1 | inconclusive [inhibitor, partial curve, poor fit] |
| COC(=O)c1c(NC(=O)Cc2ccccc2)sc2c1CC(C)(C)NC2(C)C | inconclusive [inhibitor, full curve, poor fit] |
| NC(=O)C1(N2CCCCC2)CCN(c2nc(-c3ccccc3)cs2)CC1 | inconclusive [inhibitor, full curve, poor fit] |
| COc1ccc2[nH]c(C)c(CCN(Cc3cccs3)C(=S)Nc3ccccc3)c2c1 | inconclusive [inhibitor, partial curve, poor fit] |
| S=C(NCC1CCCO1)N1CCN(c2ccccc2)CC1 (stereo not given) | inactive |
| c1ccc(OCCOCCN2CCN(C(c3ccccc3)c3ccccc3)CC2)cc1 | inactive |
| CCOc1ccccc1CNC(=O)c1c([N+](=O)[O-])c(C)nn1C | inconclusive [inhibitor, partial curve] |
| COc1ccc(NC(=O)c2cc(C)on2)cc1OC | inconclusive [inhibitor, single point] |
| c1ccc(C2=NC(c3ccccc3)N=C(c3ccccc3)N2)cc1 | inconclusive [inhibitor, full curve, poor fit] |
| O=C(Nc1cccnc1)c1ccc(COc2ccccc2Br)o1 | inactive |
| CCC(=O)c1c(NC(C)C)cc(C)oc1=O | inactive |
| CC1(C)C2CCC(C2)C1(C)N=C1OC(CCl)CS1 (stereo not given) | inactive |
| COc1ccc(C(=O)c2c(O)cc(-c3ccc(OC)cc3)oc2=O)cc1 | inconclusive [inhibitor, full curve] |
| NC(N)=NN=C1CCC(c2ccccc2)CC1 (stereo not given) | inactive |
| Cc1cc(C)c(OCC(=O)Nc2ccccc2N2CCOCC2)c(C)c1 | inconclusive [inhibitor, partial curve] |
| Cc1cc(C)c(NC(=O)C2CCN(c3nc4ccccc4n4cccc34)CC2)c(C)c1 | inactive |
| O=C(O)C1C2C=CC(C2)C1C(=O)OC1CC2CCC1C2 (stereo not given) | inconclusive [inhibitor, full curve, poor fit] |
| CC(C)NC(=O)C(=O)NCCCOC(C)C | inconclusive [inhibitor, full curve, poor fit] |
| O=C(Nc1ccc(F)cc1)Nc1nnc(Cc2ccccc2F)s1 | inconclusive [inhibitor, partial curve] |
| CSc1ncc(Cl)c(C(=O)Nc2ccccc2[N+](=O)[O-])n1 | inactive |
| CC1(C)C=Cc2c(c3ccccc3[nH]c2=O)O1 | inconclusive [inhibitor, partial curve, poor fit] |
| CC(C)COc1cccc(C(=O)N2CCN(C(=O)c3ccco3)CC2)c1 | inconclusive [inhibitor, full curve, poor fit] |

| Structure (SMILES) | Potency |
| --- | --- |
| Cc1ccc(C)c(NC(=O)C(NCC(C)(C)N2CCOCC2)c2ccccc2)c1 (stereo not given) | inactive |
| CCOC(=O)N1CCC(N2Cc3cccc(C(=O)Nc4c(C)cccc4CC)c3C2=O)CC1 | inconclusive [inhibitor, full curve, poor fit] |
| CC(=O)Nc1nc2cc3c(cc2s1)OCCO3 | inconclusive [inhibitor, partial curve, poor fit] |
| C=CCc1ccc(OCCn2cncn2)c(OC)c1 | inactive |
| CCCC(C)n1[nH]c(=O)c2c(C)cc(C)nc21 (stereo not given) | inconclusive [inhibitor, single point] |
| CC1CCN(C(=O)COC(=O)CCCN2C(=O)c3cccc4cccc(c34)C2=O)CC1 | inconclusive [inhibitor, partial curve, poor fit] |
| COc1ccc(-c2sc3ccc(N4CCOCC4)cc3c2-c2ccc(OC)c(F)c2)cc1 | inconclusive [inhibitor, full curve] |
| CCC1CCCCN1CCCNC(=O)Cn1ncn2nc(-c3ccc(OC)cc3)cc2c1=O (stereo not given) | inactive |
| O=C(NCCO)c1cccc2c1C(=O)c1ccccc1-2 | inconclusive [inhibitor, full curve, poor fit] |
| Cc1nc2c(-c3ccccc3)c(C)nn2c(C)c1CCC(=O)O | inconclusive [inhibitor, full curve, poor fit] |
| Cc1cccc(OC(C)C(=O)Nc2cc(S(=O)(=O)N3CCCCC3)ccc2C)c1 (stereo not given) | inactive |
| Cc1c(C(=O)Nc2ccc(Cl)cn2)oc2ccccc12 | inconclusive [inhibitor, full curve, poor fit] |
| COc1cccc(C(=O)Oc2cc(C)[nH]c(=O)c2[N+](=O)[O-])c1OC | inconclusive [inhibitor, full curve, poor fit] |
| O=C(CSc1nc(-c2ccccc2)nc2ccccc12)Nc1cccc(C(=O)O)c1 | inconclusive [inhibitor, single point] |
| O=C(c1ccc(Cl)c(S(=O)(=O)N2CCOCC2)c1)N1CCN(c2ccccn2)CC1 | inconclusive [inhibitor, full curve, poor fit] |
| O=C(Cc1ccc(S(=O)(=O)N2CCOCC2)s1)Nc1ccccc1N1CCOCC1 | inactive |
| CN(C)S(=O)(=O)c1cccc(COC(=O)CN2C(=O)NC3(CCCC3)C2=O)c1 | inconclusive [inhibitor, single point] |
| O=C(N/N=C/c1cc([N+](=O)[O-])ccc1O)NC12CC3CC(CC(C3)C1)C2 | inconclusive [inhibitor, partial curve] |
| CCOC(=O)NC(=O)COC(=O)c1ccc(Sc2ncn[nH]2)c([N+](=O)[O-])c1 | inconclusive [inhibitor, single point] |
| COc1ccccc1/C=C/C(=O)Oc1cccc2cccnc12 | inconclusive [inhibitor, full curve, poor fit] |
| Cc1ccc(N2C(N)=C(C#N)C(c3cccs3)C3=C2CC(C)(C)CC3=O)cc1 (stereo not given) | inactive |
| CC(=O)Oc1ccccc1C(=O)Oc1ccc(/C=N/n2cnnc2)cc1 | inconclusive [inhibitor, full curve, poor fit] |
